Data: PMC3189943, “Catalytic Properties of the Isolated Diaphorase Fragment of the NAD^+-Reducing [NiFe]-Hydrogenase from Ralstonia eutropha” (PLoS ONE, 2011)

Tests used:
Type in all cases: biochemical, Cupriavidus necator
purified protein [1] = substrate: NC(=O)C1=CN([C@@H]2O[C@H](COP(=O)(O)OP(=O)(O)OC[C@H]3O[C@@H](n4cnc5c(N)ncnc54)[C@H](O)[C@@H]3O)[C@@H](O)[C@H]2O)C=CC1; experiment: purified protein; conditions: free enzyme, acceptor benzyl viologen, anaerobic, 50 mM Tris-HCl pH 8.0, 30°C
purified protein [2] = substrate: c1ccc(C[n+]2ccc(-c3cc[n+](Cc4ccccc4)cc3)cc2)cc1; experiment: purified protein; conditions: artificial electron acceptor, donor NADH, free enzyme, anaerobic, 50 mM Tris-HCl pH 8.0, 30°C
[3] = substrate: NC(=O)c1ccc[n+]([C@@H]2O[C@H](COP(=O)(O)OP(=O)(O)OC[C@H]3O[C@@H](n4cnc5c(N)ncnc54)[C@H](O)[C@@H]3O)[C@@H](O)[C@H]2O)c1; experiment: protein film electrochemistry, Hanes/Woolf plot; conditions: NAD+ reduction at -412 mV, enzyme adsorbed on graphite electrode, 50 mM Tris-HCl pH 8.0, 30°C, n = 9

B1: HoxFU (diaphorase moiety of the NAD+-reducing soluble [NiFe]-hydrogenase, SH) (Cupriavidus necator H16) (protein)
chain: MDSRITTILERYRSDRTRLIDILWDVQHEYGHIPDAVLPQLGAGLKLSPLDIRETASFYHFFLDKPSGKYRIYLCNSVIAKINGYQAVREALERETGIRFGETDPNGMFGLFDTPCIGLSDQEPAMLIDKVVFTRLRPGKITDIIAQLKQGRSPAEIANPAGLPSQDIAYVDAMVESNVRTKGPVFFRGRTDLRSLLDQCLLLKPEQVIETIVDSRLRGRGGAGFSTGLKWRLCRDAESEQKYVICNADEGEPGTFKDRVLLTRAPKKVFVGMVIAAYAIGCRKGIVYLRGEYFYLKDYLERQLQELREDGLLGRAIGGRAGFDFDIRIQMGAGAYICGDESALIESCEGKRGTPRVKPPFPVQQGYLGKPTSVNNVETFAAVSRIMEEGADWFRAMGTPDSAGTRLLSVAGDCSKPGIYEVEWGVTLNEVLAMVGARDARAVQISGPSGECVSVAKDGERKLAYEDLSCNGAFTIFNCKRDLLEIVRDHMQFFVEESCGICVPCRAGNVDLHRKVEWVIAGKACQKDLDDMVSWGALVRRTSRCGLGATSPKPILTTLEKFPEIYQNKLVRHEGPLLPSFDLDTALGGYEKALKDLEEVTR
notes: HoxFU heterodimer without HoxHY and HoxI; N-terminal Strep-tag II on HoxF kept; plasmid pGE553, homologous overproduction in R. eutropha HF424; Strep-Tactin plus size exclusion; apparent 110 kDa; HoxF 67 kDa, HoxU 27 and 23 kDa (both with original termini, unidentified modification); FMN and Fe-S clusters; with NAD-reducing hydrogenase HoxS subunit gamma
Km (purified protein [1]): 56 µM | kcat (purified protein [1]): 639 s⁻¹ | Km (purified protein [2]): 882 µM | Km [3]: 197 ± 28 µM
